The whole screen tested about 390,000 compounds, of which about 17,000 (4.4%) were called active. This list was built around the results that the source calls inconclusive (neither active nor inactive); the mix of calls is not that of the screen. The call rests on the fitted dose curve; in most records, active means well fitted inhibition curve with a large enough effect; inconclusive means small, poorly fitted or top-dose-only effect; inactive means no such curve, though single readings can be large or run the other way. Potencies of inconclusive entries are doubtful fits and often do not repeat.
Biological target: Lysine-specific demethylase 4A (Homo sapiens) (UniProt O75164)
Test: qHTS Assay for Inhibitors of JMJD2A-Tudor Domain; further: nearly all actives have a fitted effect of over 50% in size
Settings: AlphaScreen JMJD2A-Tudor / H3K4me3 peptide binding; activity change, negative = inhibition: at 114 µM (top of the series)
On the % scale 0 is the no-effect control and ±100 the full control effect; potency means the concentration at half of the fitted maximal effect; tags describe the fitted curve by direction and shape.

Sequence of UniProt O75164 (O75164 whole entry, looked up, the tested form may be a part): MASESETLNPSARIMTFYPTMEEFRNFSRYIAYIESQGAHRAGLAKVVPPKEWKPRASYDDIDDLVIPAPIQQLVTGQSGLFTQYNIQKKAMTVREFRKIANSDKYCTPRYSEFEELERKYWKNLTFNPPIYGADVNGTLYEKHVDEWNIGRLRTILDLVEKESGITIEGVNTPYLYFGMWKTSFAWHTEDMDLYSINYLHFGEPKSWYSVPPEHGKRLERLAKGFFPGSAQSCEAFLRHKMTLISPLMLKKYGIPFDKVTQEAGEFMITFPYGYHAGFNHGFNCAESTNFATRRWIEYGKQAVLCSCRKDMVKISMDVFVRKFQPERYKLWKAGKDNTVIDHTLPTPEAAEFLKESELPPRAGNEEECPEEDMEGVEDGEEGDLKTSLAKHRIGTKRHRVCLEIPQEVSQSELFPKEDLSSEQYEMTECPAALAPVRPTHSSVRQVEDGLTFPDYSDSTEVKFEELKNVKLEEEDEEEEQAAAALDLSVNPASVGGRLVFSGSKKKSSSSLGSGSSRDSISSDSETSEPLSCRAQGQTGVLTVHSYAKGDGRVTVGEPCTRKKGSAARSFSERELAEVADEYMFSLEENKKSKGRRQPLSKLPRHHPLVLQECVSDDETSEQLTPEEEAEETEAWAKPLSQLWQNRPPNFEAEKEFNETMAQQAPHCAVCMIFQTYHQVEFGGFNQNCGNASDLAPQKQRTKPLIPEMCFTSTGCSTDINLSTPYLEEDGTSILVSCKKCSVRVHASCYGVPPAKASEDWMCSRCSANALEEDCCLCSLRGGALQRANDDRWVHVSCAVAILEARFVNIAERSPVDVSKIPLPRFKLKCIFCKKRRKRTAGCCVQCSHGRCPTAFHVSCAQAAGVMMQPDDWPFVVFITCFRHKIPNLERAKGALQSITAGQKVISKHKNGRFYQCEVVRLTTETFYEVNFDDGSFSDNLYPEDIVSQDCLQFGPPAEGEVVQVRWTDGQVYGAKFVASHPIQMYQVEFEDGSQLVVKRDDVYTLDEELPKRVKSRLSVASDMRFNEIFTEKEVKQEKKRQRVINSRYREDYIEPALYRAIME

Potency, active:
CCCn1nnc(NC(=S)NC(=O)/C=C/c2ccco2)n1 28.2 µM, O=C(NC(=S)N1CCCCC1CO)c1cc(Br)ccc1Cl (centres undefined) 7.94 µM, CCN(CC(=O)Nc1ccc(OC)cc1)C(=O)c1ccc([N+](=O)[O-])cc1 10 µM, CC(C)(C)N1NC2(CCCCC2)NC1=S 17.8 µM, COc1cccc(CN2CCC(C(=O)N3CCN(c4ccccc4F)CC3)CC2)c1 8.91 µM, CC1=NN(c2ccccc2)C(=O)/C1=C\c1ccc(Br)s1 10 µM, Cc1ccc(/C=N/N2CCN(C3c4ccccc4-c4ccccc43)CC2)o1 44.7 µM

Potency, inconclusive:
COc1ccc(NC(=S)N2CCN(C(c3ccccc3)c3ccccc3)CC2)cc1OC 31.6 µM [inhibitor, partial curve], COc1ccc(CN2C(=O)CN(C3CCCCCC3)C(=O)C2c2ccc(F)cc2)cc1 (centres undefined) 100 µM [inhibitor, partial curve], Cc1ccc(OCC(=O)N2CCN(c3ccc([N+](=O)[O-])c(N4CCOCC4)c3)CC2)cc1 44.7 µM [inhibitor, partial curve], Cc1ccc2c(c1)C(c1ccccc1)C(=O)O2 (centres undefined) 89.1 µM [inhibitor, single point], COc1ccc2c(c1)c(CCNNC(=O)C(C)(C)C)c(C)n2C(=O)c1ccc(Cl)cc1 35.5 µM [inhibitor, partial curve], COc1ccccc1OCc1ccc(C(=O)NC(C)c2ccccc2)o1 (centres undefined) 89.1 µM [inhibitor, single point], CC(C)(C)c1ccc(C(=O)NCC(c2cccnc2)N2CCc3ccccc3C2)cc1 (centres undefined) 20 µM [inhibitor, full curve], O=C(O)/C=C/C(=O)Nc1ccc(O)cc1 70.8 µM [inhibitor, single point], COCCN(C(=O)COC(=O)C12CC3CC(CC(C3)C1)C2)c1c(N)n(Cc2ccccc2)c(=O)[nH]c1=O 15.8 µM [inhibitor, full curve, poor fit], c1coc(Cn2c(-c3ccco3)nc3ccccc32)c1 79.4 µM [inhibitor, single point], CCC(C)OC(=O)n1ccc(C(=O)Nc2nccs2)n1 (centres undefined) 89.1 µM [inhibitor, single point], CCNC(=S)N(CCc1c(C)[nH]c2ccc(OC)cc12)Cc1cccnc1 35.5 µM [inhibitor, full curve], O=C(Nc1ccc(Cc2ccncc2)cc1)c1ccc(Cl)c([N+](=O)[O-])c1 50.1 µM [inhibitor, partial curve], O=C(N/N=C/c1cccc(F)c1)c1cc(-c2ccco2)nc2ccccc12 3.55 µM [inhibitor, partial curve], Cc1nc(Cc2nnc(SCC(=O)N3CCN(c4ccc(O)cc4)CC3)o2)cs1 44.7 µM [inhibitor, partial curve], O=C(CSc1nccn1-c1cccc(Cl)c1)Nc1ccc2c(c1)OCO2 44.7 µM [inhibitor, partial curve], Nc1nc(=S)c2ncn(C3CCCCC3)c2[nH]1 2.51 µM [inhibitor, partial curve, poor fit], CCOc1ccc(NC(=S)N(CCCN2CCOCC2)Cc2cn(C)c3ccccc23)cc1 56.2 µM [inhibitor, partial curve], O=C(NCc1ccccn1)C1Nc2ccc(C(F)(F)F)cc2C2C=CCC12 (centres undefined) 79.4 µM [inhibitor, single point], CN(C)c1ccc(N2C(=NC(=O)C3CCCO3)SC3CS(=O)(=O)CC32)cc1 (centres undefined) 100 µM [inhibitor, partial curve, poor fit], CSCC[C@H](NC(=O)c1ccc(Br)o1)c1nnc2ccccn12 15.8 µM [inhibitor, full curve], CCCNC(=O)COC(=O)c1c2c(nc3ccccc13)CCC2 56.2 µM [inhibitor, partial curve], Cc1ccc(NCc2ccccc2O)cc1 39.8 µM [inhibitor, partial curve], C/C(CC(=O)Nc1ccc(N(C)C)cc1)=N\NC(=O)c1ccc(Cl)cc1Cl 56.2 µM [inhibitor, partial curve]

Activity change, negative = inhibition, inactive:
CCc1nc(N2CCN(C(=O)c3ccccc3)CC2)c(C#N)c2c1COC(C)(C)C2 23.3% [at 11.4 µM], COc1ccccc1Nc1nc(N)nc(CN2CCCCC2)n1 -16.5%, COc1ccc(OC(=O)c2nc(SCc3ccccc3F)ncc2Cl)cc1 7.86%, CC1CCCC(C)N1C(=O)CSCc1ccc(Cl)cc1 (centres undefined) 20.7%, CCOC(=O)N1CCN(c2cc(N(C)CCO)c([N+](=O)[O-])c3nonc23)CC1 -9.97%, O=C(O)c1ccc2ccc3ccccc3c2c1 -11%, COc1ccc2nc(SCCC(=O)O)cc(C)c2c1 -15.7%, CN(C)CCCN(C(=O)/C=C/c1cccs1)c1nc2ccc(F)cc2s1 37.6%, COCCCNC(=O)c1ccc(CS(=O)(=O)c2ccccc2C)o1 -4.79%, CC1CCN(CCn2c(=S)[nH]c3cc4c(cc3c2=O)OCO4)CC1 -10.1%, COC(=O)c1sc(NC(=S)NC(=O)c2ccccc2)nc1C -9.72%, O=C(/C=C/c1ccc(-c2ccccc2)cc1)NCc1cccnc1 -8.9%, O=C(COC(=O)/C=C/c1ccc2c(c1)OCO2)Nc1ccccc1 -3.81%, Cc1ccc(S(=O)(=O)Nc2ccccc2C(=O)N2CCCCC2C)c(C)c1NS(C)(=O)=O (centres undefined) -0%, O=c1c(F)cn(C2CCCO2)c(=O)n1Cc1ccc(Cl)cc1 (centres undefined) -16.8%, CC(=O)Nc1ccc(NC(=O)C(C)Sc2nnc(C3CC3)n2-c2ccccc2)cc1 (centres undefined) -22.2%, CCn1cc2nc(SCC(=O)Nc3cc(OC)cc(OC)c3)n(Cc3ccc(Cl)cc3)c(=O)c2n1 -14%, CC(C(=O)Nc1ccc(C(N)=O)cc1)N1C(=O)c2ccccc2S1(=O)=O (centres undefined) -12.8%

From PubChem BioAssay AID504339 (National Center for Advancing Translational Sciences (NCATS), 2011)
